Laboratory results from PubChem BioAssay AID1346428 (National Center for Advancing Translational Sciences (NCATS), 2018).
Hit rate of the full screen: of about 48,000 compounds, about 1,200 (2.5%) were called active. About 2% were inconclusive and are not listed.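 Rule for the calls: active = activation of at least 60% and not above a set upper limit (about 1 call in 100 departs from these limits); inconclusive = activation of 40% to 60%, or above that upper limit; inactive = activation under 40%.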 The list shows a part of the results.

Target: Probable G-protein coupled receptor 32 (Homo sapiens) (UniProt O75388)
UniProt O75388, sequence (O75388 whole entry, looked up): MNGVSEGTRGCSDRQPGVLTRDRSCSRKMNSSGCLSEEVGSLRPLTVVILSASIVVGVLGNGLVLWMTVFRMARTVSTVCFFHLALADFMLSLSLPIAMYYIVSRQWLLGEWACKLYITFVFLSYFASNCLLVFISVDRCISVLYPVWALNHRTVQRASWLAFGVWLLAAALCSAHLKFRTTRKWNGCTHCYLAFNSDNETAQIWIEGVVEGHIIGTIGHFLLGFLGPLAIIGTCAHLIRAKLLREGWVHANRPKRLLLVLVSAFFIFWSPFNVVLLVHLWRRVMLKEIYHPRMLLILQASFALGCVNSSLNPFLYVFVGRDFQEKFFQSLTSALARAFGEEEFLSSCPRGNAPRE
Test: qHTS for Agonists of Human Resolvin D1 Receptor DRV1; note: 0% is about no effect
Conditions: CHO-K1 GPR32 beta-arrestin PathHunter luminescence, 90 min; at 76.9 µM; stronger effect = higher value; zero percent set by DMSO-only wells
In short: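 Agonism was scored as beta-arrestin recruitment to ProLink-fused GPR32 in stably transfected CHO-K1 cells, giving a chemiluminescent beta-Gal signal; compounds were incubated 90 min at 37 °C.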

SMILES | activation
COc1ccc(OCC(=O)N2CCN(C(=O)c3cc(OC)c(OC)c(OC)c3)CC2)cc1 | inactive: -28.9%
COc1ccc(/C=C/C(=O)N2CCC(c3nc4ccccc4o3)CC2)cc1OC | inactive: -8.52%
Cc1ccc(COc2ccc3oc(-c4ccccc4)c(C(=O)O)c3c2)cc1 | inactive: 22.9%
Cc1ccc(NC(=O)c2ccc(=O)n(CC(=O)Nc3c(C)cc(C)cc3C)n2)cc1 | inactive: -18.2%
COc1ccc(C(=O)N2CC(=O)Nc3ccc(C)cc3C2c2ccccc2)cc1OC (centres undefined) | inactive: -12.5%
CCOc1ccc(C2C=C(c3cccc(OC)c3)Nc3nnnn32)cc1 (centres undefined) | inactive: -1.07%
COc1ccc(-n2nc(C(=O)Nc3ccc(Br)cc3C)c3c4ccccc4n(C)c3c2=O)cc1 | inactive: 2.72%
O=C1CCc2ccc(OCCCCN3CCN(c4cccc(Cl)c4Cl)CC3)cc2N1 | active: 89.7%
COc1cccc(C(=O)Nc2ccc(-n3nncc3-c3ccc(Br)cc3)cc2)c1OC | inactive: -16.4%
Cc1cc(C)n2c(Nc3ccccc3C)c(-c3cccs3)nc2n1 | inactive: 5.64%
CC(C)(C)c1ccc(C(=O)NNc2ncnc3c2cnn3-c2ccccc2)cc1 | active: 104%
CCN(C(=O)Cn1c(SCC(=O)Nc2ccc(OC)cc2)nc2ccccc21)c1cccc(C)c1 | inactive: -13.2%
COc1ccc(NC(=O)c2cc3c(=O)n(C)c4ccccc4c3s2)cc1Cl | inactive: -4.29%
CCOC(=O)C1CCCN(C(=O)c2c(C)nn(-c3ccc(F)cc3)c2-n2cccc2)C1 (centres undefined) | inactive: -16.2%
O=C(Nc1ccc(F)cc1)C1CCN(c2nc3ccccc3n3cccc23)CC1 | inactive: -1.91%
Cc1ccc(OCCSc2nc3ccc(NC(=O)c4ccc5c(c4)OCO5)cc3s2)cc1 | inactive: -1.04%
CSc1ccc(CCNC(=O)CCn2c(=O)c3cccn3c3cccnc32)cc1 | inactive: -11.4%
CCCc1ccc(OC(=O)CSc2nnc(-c3cccs3)o2)cc1 | inactive: 0.128%
CCS(=O)(=O)N1CCc2cc(C(=O)Nc3cccc(C)c3C)ccc21 | inactive: 7.52%
CCOc1ccc(-c2cc3c(=O)n(CC(=O)NCc4ccc(OC)cc4)ccn3n2)cc1 | inactive: -1.12%
O=C(NC1(C(F)(F)F)NC(=O)N(CCc2ccccc2)C1=O)c1ccccc1Cl (centres undefined) | inactive: 1.89%
CC(=O)c1cccc(NCc2ccccc2-c2nnc(-c3ccccc3)o2)c1 | inactive: 0.77%
Cc1cccc(NC(=O)CSc2nnc(N)s2)c1 | inactive: -22.8%
CCOc1ccc(S(=O)(=O)N2CCC(N3CCN(Cc4ccc(F)cc4)C(=O)C3=O)CC2)cc1 | inactive: 5.82%
